Experimental findings from patent US20240239854A1, “ANTIMICROBIAL PEPTIDES AND MODIFICATIONS THEREOF” (Donald Danforth Plant Science Center, priority 2022, published 2024) are described below.

Residues, ends and D or L forms follow the SMILES beside them.

For the assay, the system named is B. cinerea. Description: In planta assay on detached Nicotiana benthamiana leaves, gray mold (Example 1). Particulars: applied on detached Nicotiana benthamiana leaves.

In the case of `CC[C@H](C)[C@H](NC(=O)[C@H](CCCNC(=N)N)NC(=O)[C@@H](NC(=O)[C@H](CS)NC(=O)[C@H](Cc1ccccc1)NC(=O)[C@H](CS)NC(=O)[C@H](CCCNC(=N)N)NC(=O)[C@H](CCCNC(=N)N)NC(=O)[C@H](CCCNC(=N)N)NC(=O)[C@H](Cc1ccccc1)NC(=O)CNC(=O)[C@H](CCCCN)NC(=O)[C@H](CS)NC(=O)[C@H](CCCNC(=N)N)NC(=O)CNC(=O)CN)[C@@H](C)O)C(=O)N[C@@H](CS)C(N)=O` [GMA4C_V1A] (H-GGRCKGFRRRCFCTRIC-NH2; N-terminus assumed), the “Reduction of gray mold disease symptoms” value is “more potent than GMA4C_AC or GMA4C_V2A”.
As for `CC[C@H](C)[C@H](NC(=O)[C@H](CCCNC(=N)N)NC(=O)[C@@H](NC(=O)[C@@H](NC(=O)[C@H](Cc1ccccc1)NC(=O)[C@@H](NC(=O)[C@H](CCCNC(=N)N)NC(=O)[C@H](CCCNC(=N)N)NC(=O)[C@H](CCCNC(=N)N)NC(=O)[C@H](Cc1ccccc1)NC(=O)CNC(=O)[C@H](CCCNC(=N)N)NC(=O)[C@H](CS)NC(=O)[C@H](CCCNC(=N)N)NC(=O)CNC(=O)CN)C(C)C)C(C)C)[C@@H](C)O)C(=O)N[C@@H](CS)C(N)=O` [GMA4C_V3A] (H-GGRCRGFRRRVFVTRIC-NH2; N-terminus assumed), the entry is “more potent than GMA4C_AC or GMA4C_V2A”.
